Source: the RNAGym collection of RNA variant scans (doi:10.7554/elife.90254)
Read counts are not given, so values of variants with three or more changes are uncertain.

B1: LINE1-mini (parent)
chain: GGCAGAGCUCAACACAGCGUGGCAAAGUGGCUGUGGCUAGACUGCC

Variants of: B1
Assay: self-cleavage, relative activity (ratio to wild type); higher = more cleavage; in vitro, sequencing; the parent is a self-cleaving ribozyme
GGCAGAGCUCAACACAGCGCGGCGAAGUGGCUGUGGCUAGAGUCCC gave a self-cleavage of 0.03. For GGCAGAGCUCAACACAGCGAGGCAAAGUGGCUGUGGCUAGACUUGC, the self-cleavage was 0.09. Variant GGCAGAGCUCAACACAGCGCAGUAAAGUGGCUGUGGCUAGACUGCC has a self-cleavage of 0.46. In the case of GGCAGAGCUCAACACAGCGAGACAAAGCGGCUGUGGCUAGACUGCU, the self-cleavage is reported as 0.84. For GGCAGAGCUCAACACAGCGCGUCAAAGUGGCGGUGGCCAGACUGCC, the self-cleavage was 0.02. With GGCAGAGCUCAACACAGCGAGGCAAAGUGACUGUCACUAGACUGCC the self-cleavage was 0.09. GGCAGAGCUCAACACAGCGAGGCAAAUUGGCUAUGCAUAGACUGCU gave a self-cleavage of 0.02. GGCAGAGCUCAACACAGCGAGGCAAAGUGGCUGGGGCCAGACUGCC gave a self-cleavage of 0.22. For GGCAGAGCUCAACACAGCGCGGCAAUGUCGCUUUGGCUAGCCUCCC, the self-cleavage was 0.02. GGCAGAGCUCAACACAGCGAGGCAAAGUGGCUGUUGCUAGACUGCA gave a self-cleavage of 0.05. GGCAGAGCUCAACACAGCGCGUCAAAGUGGCUAUGGCUAGACUGCC showed a self-cleavage of 0.44. GGCAGAGCUCAACACAGCGCCGCAAAGUGCCUGUCGCUAGACUGCC showed a self-cleavage of 0.08. For GGCAGAGCUCAACACAGCGCGGAAAAGUGGCUGUGGCUAGACUGAC, the self-cleavage was 0.1. Work on GGCAGAGCUCAACACAGCGAGGCAAAGUGGCUGAGGCUAGACUCCC yielded a self-cleavage of 0.02. Variant GGCAGAGCUCAACACAGCGCGGCUCAGUGGCUGUGGCUACACUGCC has a self-cleavage of 0.02. In the case of GGCAGAGCUCAACACAGCGCGGCAAACUGGCUGUAGCUAGACUGGC, the self-cleavage is reported as 0.05. GGCAGAGCUCAACACAGCGCGGCAAAGUCGCUGUGGCAAAAAUGCC showed a self-cleavage of 0.02. GGCAGAGCUCAACACAGCGCGGCAAGGUUGCUGUGGCUAGACUGCC showed a self-cleavage of 0.39. For GGCAGAGCUCAACACAGCGCGCCAAAGUGGUUGCGGCUGGAAUGCC, the self-cleavage was 0.06. Variant GGCAGAGCUCAACACAGCGCGACAAAAUUGCUGUGGCUAGACUGCC has a self-cleavage of 0.25. Work on GGCAGAGCUCAACACAGCGCGGCAAAGUGGCUGUGGUUCUACUGCC yielded a self-cleavage of 0.01. GGCAGAGCUCAACACAGCGCGACAAAGUGGCUGUUGCUAGACUGCC showed a self-cleavage of 0.11. For GGCAGAGCUCAACACAGCGCGGCAAAAUGGCUGUGGCUACACUGCC, the self-cleavage was 0.05. Variant GGCAGAGCUCAACACAGCGAGGCAAAGUGGCUGUGGCUAAACUGCA has a self-cleavage of 0.01. GGCAGAGCUCAACACAGCGAGGCAAAGUUGCUGUUGCUAGACUGCU gave a self-cleavage of 0.03. Variant GGCAGAGCUCAACACAGCGCGGCAUUGUGGAUGUGGCUAGACUGCC has a self-cleavage of 0.08. GGCAGAGCUCAACACAGCGAGUAAAAGUGGCUGUGGCUGCAAUGGC gave a self-cleavage of 0.06. Work on GGCAGAGCUCAACACAGCGCGGUAAAGUGGCCGUGGCAAGACUGCC yielded a self-cleavage of 0.16. GGCAGAGCUCAACACAGCGAGGCAAAGUAGCUGUGGCUUGACUGCC gave a self-cleavage of 0.53. With GGCAGAGCUCAACACAGCGAGGCAAAGGGCCUGUGGUUAGACUGCC the self-cleavage was 0.03. GGCAGAGCUCAACACAGCGCGACAAAGUGGCGGUAGCUAGACUGCC showed a self-cleavage of 0.03. GGCAGAGCUCAACACAGCGAGGCAAAGUAGCAGUGGCUAGCCUGCC gave a self-cleavage of 0.02. Work on GGCAGAGCUCAACACAGCGCGGAAAAGUGACUGUCGCUAGACUGCC yielded a self-cleavage of 0.1. Variant GGCAGAGCUCAACACAGCGCGGCCAAGUGUCUGUGGCUAGACUGCC has a self-cleavage of 1.39. In the case of GGCAGAGCUCAACACAGCGCGGCAAAGUGGCUGUGGUUACACUGCC, the self-cleavage is reported as 0.04. GGCAGAGCUCAACACAGCGCGGGAAAGUGGCUGUGGCGAGACUGCC gave a self-cleavage of 0.01. Work on GGCAGAGCUCAACACAGCGCGGCAAAGUGGCUAUGGCUACACUGCC yielded a self-cleavage of 0.03. Variant GGCAGAGCUCAACACAGCGCUGCAAAGUUGCUGUUGCUAAACUGCC has a self-cleavage of 0.03. Variant GGCAGAGCUCAACACAGCGCUGCAAAGUGGCUGUGGCUUGACUGCC has a self-cleavage of 0.09. Work on GGCAGAGCUCAACACAGCGCGGCUAAGUGGGUGUGGCUAGACUGCC yielded a self-cleavage of 0.03. With GGCAGAGCUCAACACAGCGAGGCAAACUGGCUGUGGCUAGACUGCU the self-cleavage was 1.14. GGCAGAGCUCAACACAGCGAGGCAAAGUGGCUGUGCCUAUAUUGCC gave a self-cleavage of 0.02. In the case of GGCAGAGCUCAACACAGCGCGGCAAAGUGUCGGUGGCUUGACUGCA, the self-cleavage is reported as 0.15. With GGCAGAGCUCAACACAGCGCUGCAAAGUGGCUGUGGCUAGAAUGCC the self-cleavage was 0.15. Work on GGCAGAGCUCAACACAGCGCGGCAAAGUGACUGUGGCUCGACAGCA yielded a self-cleavage of 0.04. GGCAGAGCUCAACACAGCGAGGCAAAGUUGCUGUGGUUAGACUGCC showed a self-cleavage of 0. Work on GGCAGAGCUCAACACAGCGCGACAAAGUGUCUGUGGCUAGACUGCC yielded a self-cleavage of 0.09. Variant GGCAGAGCUCAACACAGCGCGGCAAAGUGUAUGUGGCUAGCCUGCC has a self-cleavage of 0.02. GGCAGAGCUCAACACAGCGAGGCAAAGUGGCAGCGGCUAGACUACC gave a self-cleavage of 0.05. In the case of GGCAGAGCUCAACACAGCGAGGCAAAGUCGCUGUGGUUAGACUGCC, the self-cleavage is reported as 0.01. GGCAGAGCUCAACACAGCGCGGCAAAGUGGCUGUAGCUAGACUGUC gave a self-cleavage of 0.2. In the case of GGCAGAGCUCAACACAGCGAGUCAGAAUGGCUGUGGCUAGACUGCC, the self-cleavage is reported as 0.46. GGCAGAGCUCAACACAGCGCGGCAAAGUGUCCGAGGCUAGACUGCC showed a self-cleavage of 0.02. Work on GGCAGAGCUCAACACAGCGCGGUAAAGUGGCUGUGGUUAGACUGCC yielded a self-cleavage of 0.02. GGCAGAGCUCAACACAGCGCAGCAAAGAGGCUGUGGCUAGACUGCC showed a self-cleavage of 0.49. GGCAGAGCUCAACACAGCGCGGAAAAGUGGAUGUGGCUAGACUGCC gave a self-cleavage of 0.06.
